Data published in the RNAGym collection of RNA variant scans (doi:10.1093/nar/gkz1192).
Read counts are not given, so values of variants with three or more changes are uncertain.

B1: CPEB3 Ribozyme (parent)
chain: UAACAGGGGGCCACAGCAGAAGCGUUCACGUCGCAGCCCCUGUCAGAUUCUGGUGAAUCUGCGAAUUCUGCUGUAUAUCUC

Variants of: B1
Assay: self-cleavage, relative activity (ratio to wild type); higher = more cleavage; in vitro, sequencing
Procedure, shortened: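 For each CPEB3 ribozyme variant, relative activity is its cleaved/total read fraction divided by the unmutated ribozyme's. Barcoded error-prone PCR libraries were transcribed by T7 RNA polymerase (5 hours, 37°C) and held in DNase I for 15 min before an EDTA stop, with cleavage occurring throughout. Template-switching reverse transcription and Illumina sequencing were used to read the RNAs. A 5-read minimum applied, and results are the mean of three batches.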

| Variant | self-cleavage |
| --- | --- |
| A56G A57G U60A | 0.37 |
| A56G A57G U60C U69C A75G U76C | 0.13 |
| A56G A57G U67G | 0.11 |
| A56G A57U U78C | 0.29 |
| A56G A64C U74C | 0.09 |
| A56G A64U U72A | 0.3 |
| A56G A64U U74A U80C | 0.44 |
| A56G A65G U67C C68A U74C | 0.34 |
| A56G A65G U72G | 0.54 |
| A56G A75G U78C | 0.52 |
| A56G C62G U74C | 0.23 |
| A56G C71G U78A | 0.36 |
| A56G G63U U78C | 1.09 |
| A56G U58A U78C | 0.18 |
| A56G U58G A65G | 0.17 |
| A56G U60C A75U | 0.54 |
| A56G U60C U72C | 0.36 |
| A56G U60G U69C | 0.27 |
| A56G U67A U80A | 0.74 |
| A56G U67C U80C | 0.35 |
| A56G U69C U78A | 0.63 |
| A56G U72A U80A | 1.26 |
| A56G U72C U76A | 0.69 |
| A56G U72C U80C | 1.13 |
| A56G U74G A75U | 1.13 |

| Variant | self-cleavage |
| --- | --- |
| A56U A64G U72A | 0.34 |
| A56U A64G U80A | 0.55 |
| A56U A64U U67C | 0.1 |
| A56U U60C U72C | 0.26 |
| A56U U69C U80A | 0.45 |
| A56U U72C U80C | 1.12 |
| A57C A64U U76C A77U | 0.05 |
| A57C U67A U80A | 0 |
| A57G U58A U76C U78C | 0.18 |
| A57G U58A U78A | 0.15 |
| A57G U58C A77G | 0.17 |
| A57G U58C U72A | 0.34 |
| A57G U58G G70U | 0.1 |
| A57G U60A A65G C79U | 0.34 |
| A57G U60A U78C | 0.35 |
| A57G U60C A65G | 0.15 |
| A57G U66C U69A C79A | 0.23 |
| A57G U66C U74C U78C | 0.33 |
| A57G U67C U69C | 0.23 |
| A57G U69A U72C | 0.58 |
| A57G U69C U76C | 0.74 |
| A57G U72A A75G | 1.08 |
| A57G U78A U80C | 0.75 |
| A57U G63U U76A | 0.81 |
| A57U U67G U72A | 0.18 |

| Variant | self-cleavage |
| --- | --- |
| U58A A64G U66C | 0.24 |
| U58A A65G U69C G73A | 0.16 |
| U58A A65G U72A | 0.39 |
| U58A C59A A64U | 0.11 |
| U58A C71U A75U | 0.22 |
| U58A U69A U72C U76A | 0.18 |
| U58A U72A U78C | 0.17 |
| U58C A64G U69C | 0.42 |
| U58C A65G U78C | 0.18 |
| U58C A77U U80C | 0.64 |
| U58C G73A A77G | 1.25 |
| U58C U60C U66C U69C | 0.16 |
| U58C U66A U67C C71U U72A | 0.16 |
| U58C U67C U74A U80C | 0.32 |
| U58C U69C A75U C81G | 0.23 |
| U58C U72C C79U | 1.13 |
| U58C U74C C81U | 1.11 |
| U58C U76A U80C | 0.85 |
| C59A U60A U66C | 0.19 |
| C59A U72C U80C | 0.61 |
| C59U U60C A65G U72C | 0.29 |
| C59U U60C A65G U78C | 0.14 |
| U60A A64G U67C A75G | 0.3 |
| U60A A64U U69C | 0.22 |
| U60A A65C U67C U72G U78C | 0.3 |

| Variant | self-cleavage |
| --- | --- |
| U60A A65G C68U | 0.31 |
| U60A A65G U69C | 0.25 |
| U60A A65G U76A | 0.41 |
| U60A A65U U69C U74C | 0.31 |
| U60A C68U G70A U76A | 0.39 |
| U60A G61U U72C | 0.35 |
| U60A U66G U67C | 0.45 |
| U60A U67A U72C | 0.36 |
| U60A U72A A77U | 0.81 |
| U60C A64G U72C | 0.23 |
| U60C C62U U76C | 0.17 |
| U60C C62U U78C | 0.13 |
| U60C G61A A64U | 0.16 |
| U60C G61U U76C | 0.25 |
| U60C U66A U69C | 0.39 |
| U60C U66C U69C | 0.43 |
| U60C U69A A77U U80C | 0.35 |
| U60C U69A U78A U80C | 0.24 |
| U60C U69C G70A | 0.42 |
| U60G A65G U67C U72A | 0.3 |
| U60G A65G U80A | 0.33 |
| U60G U69A U72C U80A C81U | 0.32 |
| G61A C62U A65G | 0.23 |
| G61C A77G U80C | 0.41 |
| G61U C79U U80A | 0.98 |

| Variant | self-cleavage |
| --- | --- |
| C62A A65U U80A | 0.11 |
| C62U A64U U78C | 0.22 |
| C62U U67C U72C A75G | 0.27 |
| C62U U67C U76A | 0.33 |
| G63A A75G C81A | 0.66 |
| G63A U69A U80C | 0.36 |
| A64G C79G U80C | 1.01 |
| A64G U66C U72C | 0.37 |
| A64G U66C U80C C81U | 0.25 |
| A64G U67A U72A U78A | 0.23 |
| A64G U67A U72C | 0.34 |
| A64G U72A U80G | 1.01 |
| A64U C79A U80A | 0.38 |
| A64U U67A U72A | 0.22 |
| A64U U67A U72C | 0.3 |
| A64U U69C U72C | 0.23 |
| A64U U69G U80C | 0.42 |
| A65G U66C U74C U76C | 0.33 |
| A65G U66G U69C | 0.13 |
| A65G U69A U72C | 0.44 |
| A65G U72A A75G | 0.57 |
| A65G U72C U80A | 0.72 |
| U66A A77U U78A | 0.67 |
| U66A U69C U80A | 0.26 |
| U66C U67A A75U | 0.16 |

| Variant | self-cleavage |
| --- | --- |
| U66C U69C A77G | 0.44 |
| U66C U72C A75G | 0.38 |
| U67C A75U A77G | 0.34 |
| U67C U69A U80C | 0.23 |
| U67C U72C A75G | 0.15 |
| U67C U74C U78C | 0.27 |
| U67C U76C U78C | 0.18 |
| C68U U72A U76C | 0.55 |
| U69C G70A C71G | 0.31 |
| U69C U72C U78C U80G | 0.34 |
| U69C U72C U80C | 0.34 |
| U72A U76A U78C | 0.67 |
| U72C A75G U78A | 1.3 |
| U72C U74C A75U | 1.26 |
| U72C U78C U80C | 1.21 |
| U72G U78C C79U | 0.96 |
| G73A A75G U78C | 1.26 |
| G73C U78C U80G | 1.32 |
| U74A U76G A77G | 1.4 |
| U76C U78G U80C | 0.83 |
